According to the supplement of paper PMC4967469:
Lines with a small IC50 respond at low doses; a limit (>, <) means that the fit lies beyond the doses tested. AUC is the area under the same curve over the 256-fold range up to the top dose, as a fraction; values near 1 show little effect. A top dose marked as inferred was calculated from the reported fits.

Assays:
FR-180204 = compound: Nc1[nH]nc2nnc(-c3c(-c4ccccc4)nn4ccccc34)cc12 [FR-180204]; assay: Viability of human cancer cell lines after 72 h of drug (GDSC screen); conditions: top dose 20 µM; top dose inferred
Method: (§1)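 Human cancer cell lines in 384-well plates, medium with 10% serum, drug for 72 h over a 256-fold dose range (nine 2-fold or five 4-fold steps up to the top dose). Adherent lines were fixed and stained with the nucleic acid dye Syto60, suspension lines read with resazurin; signal relative to control wells, capped at 0 and 100%. One two-parameter sigmoid per drug and line, fitted in a mixed model over all curves with the slope shared within a line.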

FK866 = compound: O=C(/C=C/c1cccnc1)NCCCCC1CCN(C(=O)c2ccccc2)CC1 [FK866]; assay: as above; conditions: top dose 1 µM; top dose inferred
Method: as §1

| Cell Line | AUC (FR-180204) | IC50 (FR-180204) [nM] | AUC (FK866) | IC50 (FK866) [nM] |
| --- | --- | --- | --- | --- |
| ASH-3 (thyroid, adherent) | 0.988 | > 20000 | 0.987 | > 1000 |
| ATN-1 (T-cell lymphoblastic leukaemia, suspension) | 0.977 | > 20000 | 0.144 | 5.41 |
| AsPC-1 (pancreas, adherent) | 0.924 | > 20000 | 0.588 | 128 |
| BB49-HNC (head and neck, adherent) | 0.973 | > 20000 | 0.376 | 24.8 |
| BB65-RCC (kidney, adherent) | 0.983 | > 20000 | 0.334 | 19.9 |
| BC-1 (B-cell lymphoma, suspension) | 0.978 | > 20000 | 0.162 | 7.29 |
| BCPAP (thyroid, adherent) | 0.97 | > 20000 | 0.218 | 10.4 |
| BE2-M17 (neuroblastoma, adherent) | 0.977 | > 20000 | 0.072 | < 3.91 |
| BE-13 (lymphoblastic leukaemia, suspension) | 0.937 | > 20000 | 0.023 | < 3.91 |
| BEN (non-small cell lung carcinoma, adherent) | 0.979 | > 20000 | 0.94 | > 1000 |
| BFTC-905 (bladder, adherent) | 0.976 | > 20000 | 0.224 | 11.4 |
| BFTC-909 (kidney, adherent) | 0.984 | > 20000 | 0.356 | 25.3 |
| BHT-101 (thyroid, adherent) | 0.958 | > 20000 | 0.557 | 90.1 |
| BHY (head and neck, adherent) | 0.965 | > 20000 | 0.741 | 306 |
| BICR10 (head and neck, adherent) | 0.985 | > 20000 | 0.689 | 232 |
| BICR22 (head and neck, adherent) | 0.983 | > 20000 | 0.662 | 189 |
| BICR78 (head and neck, adherent) | 0.967 | > 20000 | 0.589 | 114 |
| BL-41 (Burkitt lymphoma, suspension) | 0.981 | > 20000 | 0.994 | > 1000 |
| BPH-1 (prostate, adherent) | 0.902 | > 20000 | 0.453 | 45.8 |
| BT-20 (breast, adherent) | 0.983 | > 20000 | 0.95 | > 1000 |
| BT-474 (breast, adherent) | 0.957 | > 20000 | 0.917 | > 1000 |

| Cell Line | AUC (FR-180204) | IC50 (FR-180204) [nM] | AUC (FK866) | IC50 (FK866) [nM] |
| --- | --- | --- | --- | --- |
| BT-483 (breast, adherent) | 0.969 | > 20000 | 0.956 | > 1000 |
| BV-173 (chronic myeloid leukaemia, suspension) | 0.977 | > 20000 | 0.031 | < 3.91 |
| Becker (glioma, adherent) | 0.963 | > 20000 | 0.399 | 31.8 |
| BxPC-3 (pancreas, adherent) | 0.967 | > 20000 | 0.682 | 216 |
| C2BBe1 (large intestine, adherent) | 0.94 | > 20000 | 0.86 | > 1000 |
| C3A (liver, adherent) | 0.988 | > 20000 | 0.794 | 483 |
| C32 (melanoma, adherent) | 0.987 | > 20000 | 0.942 | > 1000 |
| C-4-I (cervix, adherent) | 0.984 | > 20000 | 0.327 | 19.6 |
| C-33-A (cervix, adherent) | 0.967 | > 20000 | 0.143 | 4.8 |
| CA46 (Burkitt lymphoma, suspension) | 0.985 | > 20000 | 0.042 | < 3.91 |
| CADO-ES1 (Ewing sarcoma, suspension) | 0.961 | > 20000 | 0.987 | > 1000 |
| CAKI-1 (kidney, adherent) | 0.949 | > 20000 | 0.643 | 190 |
| CAL-12T (non-small cell lung carcinoma, adherent) | 0.956 | > 20000 | 0.375 | 27.1 |
| CAL-27 (head and neck, adherent) | 0.97 | > 20000 | 0.082 | < 3.91 |
| CAL-29 (bladder, adherent) | 0.969 | > 20000 | 0.225 | 9.15 |
| CAL-33 (head and neck, adherent) | 0.973 | > 20000 | 0.4 | 33.3 |
| CAL-39 (cervix, adherent) | 0.978 | > 20000 | 0.87 | 989 |
| CAL-51 (breast, adherent) | 0.991 | > 20000 | 0.041 | < 3.91 |
| CAL-54 (kidney, adherent) | 0.983 | > 20000 | 0.911 | > 1000 |
| CAL-62 (thyroid, adherent) | 0.985 | > 20000 | 0.116 | 3.95 |
